From the supplement of paper PMC12217912
The list shows a part of the results. Sequences were assembled here from the parent chain. Values near 0.05 are background.

B1: TEV protease; numbered along this chain (parent)
chain: MGESLFKGPRDYNPISSSICHLTNESDGHTTSLYGIGFGPFIITNKHLFRRNNGTLVVQSLHGVFKVKDTTTLQQHLVDGRDMIIIRMPKDFPPFPQKLKFREPQREERICLVTTNFQTKSMSSMVSDTSCTFPSGDGIFWKHWIQTKDGQCGSPLVSTRDGFIVGIHSASNFTNTNNYFTSVPKNFMELLTNQEAQQWVSGWRLNADSVLWGGHKVFMVKPEEPFQPVKEATQL

Variants of: B1
Assay: raw area under fraction-flipped curve 0-4 h after induction (AUC4h, not background-subtracted), DNA-recorder readout of cleavage of the substrate (dimensionless); higher = more cleavage of the substrate by the protease variant
Settings: temperature: 34 °C; time window: 0-4 h after rhamnose induction
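Note: Bxb1 expression induced with 0.2% (w/v) L-rhamnose at OD600 near 0.5, cultures sampled hourly, flipped fraction per protease–substrate barcode pair counted by paired-end Illumina sequencing.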

| Variant | area with substrate ENAYFQS | area with substrate ENDYFQS | area with substrate ENEYFQS | area with substrate ENFYFQS | area with substrate ENGYFQS | area with substrate ENMYFQS | area with substrate ENNYFQS | area with substrate ENQYFQS | area with substrate ENRYFQS | area with substrate ENSYFQS | area with substrate ENTYFQS | area with substrate ENVYFQS | area with substrate ENHYFQS | area with substrate ENIYFQS | area with substrate ENCYFQS | area with substrate ENKYFQS | area with substrate ENPYFQS | area with substrate ENWYFQS | area with substrate ENYYFQS |
| --- | --- | --- | --- | --- | --- | --- | --- | --- | --- | --- | --- | --- | --- | --- | --- | --- | --- | --- | --- |
| MGESLFKGPRDYNPISSSICHLTNESDGHTTSLYGIGFGPFIITNKHLFRRNNGTLVVQSLHGVFKVKDTTTLQQHLVDGRDMIIIRMPKDFPPFPQKLKFREPQREERICLVTTNFQTKSMSSMVSDTSCTFPSGDGIFWKHWIQTKDGQCGSPLVSTRDGFIVGIHSASNFTNTNNYFTSVPKNFMELLTNQEAQQWVSGWRLTADSVLWGGHKVFMVKPEEPFQPVKEATQL [N206T] | 0.0765 | 0.0659 | 0.0592 | 0.0608 | 0.0574 | 0.0796 | 0.0512 | 0.0581 | 0.0602 | 0.0581 | 0.0536 | 0.0687 |  |  |  |  |  |  |  |
| MGESLFKGPRDYNPISSSICHLTNESDGHTTSLYGIGFGPFIITNKHLFRRNNGTLVVQSLHGVFKVKDTTTLQQHLVDGRDMIIIRMPKDFPPFPQKLKFREPQREERICLVTTNFQTKSMSSMVSDTSCTFPSGDGIFWKHWIQTKDGQCGSPLVSTRDGFIVGIHSASNFTNTNNYFTSVPKNFMELLTNQEAQQWVSGWRLNEDSVLWGGHKVFMVKPEEPFQPVKEATQL [A207E] | 0.0579 | 0.0296 | 0.067 |  |  | 0.0741 | 0.0676 |  |  | 0.0678 | 0.0465 |  | 0.0493 | 0.103 |  |  |  |  |  |
| MGESLFKGPRDYNPISSSICHLTNESDGHTTSLYGIGFGPFIITNKHLFRRNNGTLVVQSLHGVFKVKDTTTLQQHLVDGRDMIIIRMPKDFPPFPQKLKFREPQREERICLVTTNFQTKSMSSMVSDTSCTFPSGDGIFWKHWIQTKDGQCGSPLVSTRDGFIVGIHSASNFTNTNNYFTSVPKNFMELLTNQEAQQWVSGWRLNVDSVLWGGHKVFMVKPEEPFQPVKEATQL [A207V] | 0.0565 |  | 0.0416 | 0.0678 | 0.0544 | 0.0709 |  | 0.0591 |  | 0.061 |  | 0.0602 | 0.0599 | 0.111 | 0.0683 | 0.0636 | 0.0582 | 0.0535 |  |
| MGESLFKGPRDYNPISSSICHLTNESDGHTTSLYGIGFGPFIITNKHLFRRNNGTLVVQSLHGVFKVKDTTTLQQHLVDGRDMIIIRMPKDFPPFPQKLKFREPQREERICLVTTNFQTKSMSSMVSDTSCTFPSGDGIFWKHWIQTKDGQCGSPLVSTRDGFIVGIHSASNFTNTNNYFTSVPKNFMELLTNQEAQQWVSGWRLNYDSVLWGGHKVFMVKPEEPFQPVKEATQL [A207Y] | 0.0451 | 0.0536 | 0.0566 |  | 0.0403 | 0.0325 | 0.0366 |  |  | 0.0533 |  |  |  |  |  |  |  |  | 0.0549 |
| MGESLFKGPRDYNPISSSICHLTNESDGHTTSLYGIGFGPFIITNKHLFRRNNGTLVVQSLHGVFKVKDTTTLQQHLVDGRDMIIIRMPKDFPPFPQKLKFREPQREERICLVTTNFQTKSMSSMVSDTSCTFPSGDGIFWKHWIQTKDGQCGSPLVSTRDGFIVGIHSASNFTNTNNYFTSVPKNFMELLTNQEAQQWVSGWRLNADSVCWGGHKVFMVKPEEPFQPVKEATQL [L211C] | 0.0643 | 0.064 |  | 0.0653 | 0.0537 |  |  | 0.0659 |  | 0.0748 |  |  | 0.0744 |  |  | 0.0642 | 0.0683 |  | 0.0499 |
| MGESLFKGPRDYNPISSSICHLTNESDGHTTSLYGIGFGPFIITNKHLFRRNNGTLVVQSLHGVFKVKDTTTLQQHLVDGRDMIIIRMPKDFPPFPQKLKFREPQREERICLVTTNFQTKSMSSMVSDTSCTFPSGDGIFWKHWIQTKDGQCGSPLVSTRDGFIVGIHSASNFTNTNNYFTSVPKNFMELLTNQEAQQWVSGWRLNADSVLDGGHKVFMVKPEEPFQPVKEATQL [W212D] | 0.0602 | 0.0667 | 0.0669 | 0.0154 | 0.0669 | 0.0584 |  | 0.05 |  | 0.0616 |  | 0.0531 | 0.0691 |  |  | 0.0607 |  | 0.0567 |  |
| MGESLFKGPRDYNPISSSICHLTNESDGHTTSLYGIGFGPFIITNKHLFRRNNGTLVVQSLHGVFKVKDTTTLQQHLVDGRDMIIIRMPKDFPPFPQKLKFREPQREERICLVTTNFQTKSMSSMVSDTSCTFPSGDGIFWKHWIQTKDGQCGSPLVSTRDGFIVGIHSASNFTNTNNYFTSVPKNFMELLTNQEAQQWVSGWRLNADSVLFGGHKVFMVKPEEPFQPVKEATQL [W212F] | 0.061 | 0.0673 | 0.0607 | 0.0598 | 0.0644 | 0.0838 |  | 0.0546 | 0.0634 | 0.052 | 0.0559 | 0.0667 |  |  | 0.0711 |  | 0.074 |  | 0.068 |
| MGESLFKGPRDYNPISSSICHLTNESDGHTTSLYGIGFGPFIITNKHLFRRNNGTLVVQSLHGVFKVKDTTTLQQHLVDGRDMIIIRMPKDFPPFPQKLKFREPQREERICLVTTNFQTKSMSSMVSDTSCTFPSGDGIFWKHWIQTKDGQCGSPLVSTRDGFIVGIHSASNFTNTNNYFTSVPKNFMELLTNQEAQQWVSGWRLNADSVLWDGHKVFMVKPEEPFQPVKEATQL [G213D] | 0.0526 |  | 0.0584 |  |  | 0.0566 |  | 0.0573 | 0.0586 | 0.0685 | 0.0521 |  |  |  |  | 0.0582 |  |  |  |
| MGESLFKGPRDYNPISSSICHLTNESDGHTTSLYGIGFGPFIITNKHLFRRNNGTLVVQSLHGVFKVKDTTTLQQHLVDGRDMIIIRMPKDFPPFPQKLKFREPQREERICLVTTNFQTKSMSSMVSDTSCTFPSGDGIFWKHWIQTKDGQCGSPLVSTRDGFIVGIHSASNFTNTNNYFTSVPKNFMELLTNQEAQQWVSGWRLNADSVLWMGHKVFMVKPEEPFQPVKEATQL [G213M] | 0.0502 | 0.0773 | 0.0574 | 0.0534 |  |  |  | 0.0577 | 0.0604 | 0.0603 | 0.0555 | 0.0652 |  | 0.0628 | 0.0536 |  | 0.0547 |  | 0.0545 |
| MGESLFKGPRDYNPISSSICHLTNESDGHTTSLYGIGFGPFIITNKHLFRRNNGTLVVQSLHGVFKVKDTTTLQQHLVDGRDMIIIRMPKDFPPFPQKLKFREPQREERICLVTTNFQTKSMSSMVSDTSCTFPSGDGIFWKHWIQTKDGQCGSPLVSTRDGFIVGIHSASNFTNTNNYFTSVPKNFMELLTNQEAQQWVSGWRLNADSVLWWGHKVFMVKPEEPFQPVKEATQL [G213W] | 0.0625 | 0.0661 | 0.056 | 0.0587 | 0.0489 | 0.0375 | 0.0624 | 0.0542 | 0.0579 | 0.0449 | 0.0602 | 0.0486 | 0.0408 | 0.0454 | 0.059 | 0.0577 | 0.0586 | 0.0481 | 0.0573 |
